The structures appear in SMILES notation. The full ranking holds about 110,000 compounds; the median of “z-score” is about -0.1, and the highest 2% start at about 2. Some of the results follow.

The target in this test is Metabotropic glutamate receptor 8 (Rattus norvegicus) (UniProt P70579). Put plainly: rat mGluR8 modulators via GIRK flux, primary screen, cell-based, thallium flux, HTS (AID 488969). The conditions noted are these: HEK293 rat mGluR8, GIRK (G protein-gated inwardly rectifying potassium channel) thallium flux, FluoZin2; at 10 µM; stronger effect = higher value; submaximal glutamate (EC20) added with thallium.
Chain of UniProt P70579 (P70579 whole entry, looked up): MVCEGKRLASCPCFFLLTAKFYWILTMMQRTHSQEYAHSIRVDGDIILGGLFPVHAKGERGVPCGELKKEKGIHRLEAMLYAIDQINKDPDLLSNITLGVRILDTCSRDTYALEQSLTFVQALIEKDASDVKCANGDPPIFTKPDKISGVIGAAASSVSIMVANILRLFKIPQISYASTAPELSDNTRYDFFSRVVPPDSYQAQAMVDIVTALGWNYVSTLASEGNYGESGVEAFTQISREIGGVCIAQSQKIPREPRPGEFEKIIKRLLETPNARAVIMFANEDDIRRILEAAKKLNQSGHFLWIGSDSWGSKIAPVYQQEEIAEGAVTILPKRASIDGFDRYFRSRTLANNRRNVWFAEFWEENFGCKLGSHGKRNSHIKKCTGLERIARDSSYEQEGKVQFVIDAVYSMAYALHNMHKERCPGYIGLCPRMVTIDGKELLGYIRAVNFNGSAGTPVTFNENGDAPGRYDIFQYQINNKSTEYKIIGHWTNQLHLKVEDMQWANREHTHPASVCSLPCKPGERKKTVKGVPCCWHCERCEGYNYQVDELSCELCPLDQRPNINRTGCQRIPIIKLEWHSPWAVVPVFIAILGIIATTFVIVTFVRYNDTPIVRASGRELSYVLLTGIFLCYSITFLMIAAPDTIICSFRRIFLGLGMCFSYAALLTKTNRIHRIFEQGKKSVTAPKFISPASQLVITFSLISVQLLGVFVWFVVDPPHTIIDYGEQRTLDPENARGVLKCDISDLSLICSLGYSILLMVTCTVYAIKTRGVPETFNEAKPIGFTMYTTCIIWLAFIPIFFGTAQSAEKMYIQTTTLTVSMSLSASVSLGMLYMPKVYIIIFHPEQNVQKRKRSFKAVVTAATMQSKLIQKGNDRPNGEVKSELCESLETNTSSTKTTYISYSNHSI
Compound `O=[N+]([O-])c1ccc(CCNc2cccc3ccccc23)c([N+](=O)[O-])c1` came in with a z-score of -0.492.
In the case of `O=C(C(Cc1ccccc1)NS(=O)(=O)c1cccc2cccnc12)N1CCc2ccccc21` (stereo not drawn) it was -0.802; in that of `NS(=O)(=O)c1ccc(NC(=O)c2ccccc2Cl)cc1`, 0.401.
In the case of `O=C(CSc1nnc(CNc2ccc(F)cc2)n1Cc1ccco1)N1CCOCC1` it was -0.292.
Under `COc1ccc(NC(=O)c2cnc(C)cn2)cc1-n1cnnn1` stands 0.218; under `COC(=O)c1ccc(NC(=O)CSC2=Nc3ccccc3C3CC=NN23)cc1` (stereo not drawn), -0.357; under `O=c1c2ccccc2oc2nc3ccn(Cc4ccncc4)c(=O)c3cc12`, -0.0205.
Compound `CC(C)(C)C1CCC2(CC1)SCC(=O)N2c1ccccc1` (stereo not drawn) had a z-score of 0.035.
In the case of `Cc1cc(NC(=O)COc2cccc(Oc3ccccc3)c2)no1` it was 0.0723; in that of `Cc1cc(O)c(NC(=O)c2ccc(Br)o2)cc1C`, -0.0505; in that of `COc1ccc2[nH]cc(S(=O)(=O)c3ccc(F)cc3)c(=O)c2c1`, -0.447.
Under `Clc1ccc(-c2noc(CN3CCCC3)n2)cc1` stands 0.149; under `COc1ccc(Cl)cc1NC(=O)Nc1cccc([N+](=O)[O-])c1C`, -0.128.
In the case of `CN(CCNC(=O)c1cccc(N2CCCC2=O)c1)Cc1ccccc1` it was 0.122; in that of `Cc1onc(-c2ccccc2)c1C(=O)Nc1ccon1`, 0.0382.
Turning to `CC(C)C(=O)Nc1nnc(CCN2CCOCC2)s1`, the z-score is -0.652.
In the case of `O=C(COC(=O)Cc1ccccc1F)Nc1ccc(SC(F)F)cc1` it was -0.337; in that of `O=C(NC(c1ccccc1)c1ccccc1)c1ccc(S(=O)(=O)C(F)F)cc1`, -0.0614.
In turn, `Cc1nnc(SCC(=O)N2CCOCC2)c2ccccc12` gave a z-score of 0.316.
In the case of `O=C(N/N=C/c1cccnc1)c1ccccc1[N+](=O)[O-]` it was 0.0555; in that of `COc1ccc2nc(N/C(N)=N/C(=S)Nc3cccc(C)c3)nc(C)c2c1`, -0.371.
As to `N/C(Cc1ccc([N+](=O)[O-])cc1)=N\OC(=O)Cc1ccc(Cl)cc1`, the z-score came to 0.0116.
The compound `Cc1cc(C)n2nc(C(=O)Nc3cccnc3)nc2n1` displayed a z-score of -1.24.
Under `O=C(Nc1ccccc1)N(CCCN1CCOCC1)Cc1cc2cc3c(cc2[nH]c1=O)OCCO3` stands -0.351.
In the case of `COc1cccc(C(C(=O)NC2CCCC2)N(Cc2ccco2)C(=O)c2ccco2)c1OC` (stereo not drawn) it was -0.188.
In the case of `Cc1cccc(NC(=O)c2cnn(C)c2)c1C` it was -0.363; in that of `Cc1cc(=O)cc(C)n1-c1ccccc1N1CCOCC1`, 0.19; in that of `COC(=O)C1=C(N)OC2=C(C(=O)CCC2)C1c1cccs1` (stereo not drawn), -0.205.
The compound `CCCCNC(=O)CC(C(=O)N1CCc2ccccc21)n1ccnc1` (stereo not drawn) yielded a z-score of -0.0472.
The compound `O=C(N/N=C/c1ccc2c(c1)OCO2)c1ccccn1` had a z-score of 0.385.
Under `CCOC(=O)c1[nH]c(C)c(/C(O)=C2\C(=O)C(=O)N(CCN(C)C)C2c2ccc(C)o2)c1C` (stereo not drawn) stands -0.288; under `Cc1ccc2[nH]c3c(=O)n(CCCN4CCOCC4)cnc3c2c1`, -0.0181.
Under `CCCCCn1c2nc3ccccc3nc2c2c(=O)n(CC(C)C)cnc21` stands -0.289; under `CCCn1c(Cc2ccccc2)nnc1SCC(=O)N1CCOCC1`, -0.146.
On to `COC(=O)N/N=C/c1cc(C)n(-c2cccc3ccccc23)c1C`, for which the z-score is 0.0823.
Under `CC(=O)N1C(=O)C2(C(C#N)=C(N)Oc3c2c(C)nn3-c2ccccc2)c2ccccc21` (stereo not drawn) stands 0.946; under `CCOCCCNCc1ccc(OC)c(OC)c1`, 0.4.
In the case of `CCN(CC)CCCNS(=O)(=O)c1ccc(OC)cc1` it was -0.0141; in that of `Cc1n[nH]c(=S)n1/N=C/c1ccc(Br)o1`, -0.0632; in that of `Nn1c(SCc2cccc3ccccc23)nnc1-c1ccco1`, 0.217.
In the case of `N#Cc1c(NC(=O)c2nc3ncccn3n2)sc2c1CCCCC2` it was -0.0691; in that of `COCCCNC(=O)CN(c1cc(OC)ccc1OC)S(=O)(=O)c1ccccc1`, -0.283.
`Cc1nnnn1CC(=O)Nc1ccccc1[N+](=O)[O-]` displayed a z-score of -0.367.
Under `O=C1CC(N2CCC(Cc3ccccc3)CC2)C(=O)N1CCc1ccccc1` (stereo not drawn) stands 0.135.
Under `COC(=O)C1Sc2[nH]c(=O)sc2C(c2ccc(Cl)cc2)C1C(=O)OC` (stereo not drawn) stands -1.56; under `CCOC(=O)c1cc(S(=O)(=O)NC2CCN(C(=O)OCC)CC2)cn1C`, -0.118; under `O=C(CN1C(=O)c2ccccc2S1(=O)=O)N1CCc2ccccc21`, -0.453.
In the case of `CCN(CC)CCn1c(/N=C/c2cc(Br)ccc2O)nc2ccccc21` it was -0.173.
In turn, `COc1cc2c(cc1OC)C1=C(C#N)CN(CC(=O)O)CN1CC2` returned a z-score of 0.0477.
With `CCOC(=O)N1CCC(NC(=O)c2cc(S(=O)(=O)N(CC)CC)ccc2F)CC1`, the z-score is 0.131.
In the case of `COc1cc(NC(=O)CSc2nc(C)c(C)c(C)n2)c(C)cc1[N+](=O)[O-]` it was 0.122; in that of `O=C(NC1CC2CCC1C2)c1ccc(CN2CCOCC2)cc1` (stereo not drawn), -0.0921; in that of `CC(C)c1cc(-c2n[nH]c(=S)n2Cc2ccccc2)cs1`, 1.35.
In the case of `O=C(O)c1ccc(-n2nc(C(F)(F)F)c3c2CCCC3)cc1` it was -0.421.
Under `O=C(Nc1ccccc1)c1cccc(S(=O)(=O)Oc2ccc([N+](=O)[O-])cc2)c1` stands -0.533.
Compound `O=C(Nc1ccc(-c2nc3ccccc3[nH]2)cc1)c1ccc(N2C(=O)CCC2=O)cc1` came in with a z-score of -0.0927.
In the case of `CNC(=S)N(C)c1ccccc1` it was -0.0387.
Under `O=C(CSc1nc2ccsc2c(=O)n1NC(=O)c1ccccc1)NCc1ccco1` stands -0.656; under `O=C(COC(=O)c1cccs1)Nc1ccc(S(=O)(=O)N2CCOCC2)cc1`, 1.69; under `O=C(N/C(C(=O)N1CCOCC1)=C(\Sc1ncccn1)c1ccccc1)c1ccccc1`, -1.34.
Under `Cc1nc2ccc(NC(=O)c3cccs3)cc2c(=O)n1Cc1ccc(Cl)cc1` stands -0.209; under `Cc1cccc(NC(=S)N2N=CCC2c2ccccc2)c1` (stereo not drawn), -0.196.
Regarding `COc1ccc(Br)cc1CN1CCCC(C(=O)N2CCCCC2)C1` (stereo not drawn), the z-score was determined as 1.28.
Under `CC(C)Oc1ccc(C(=O)Nc2ccc(NC(=O)c3ccco3)c(Cl)c2)cc1` stands 1.02; under `C=CCOc1c(Br)cc(CNn2nnnc2N)cc1OCC`, -0.382.
Turning to `Cc1cc(=S)cc(C)n1CCCO`, the z-score was found to be 0.161.
In the case of `CCN1C(=O)N(C)C2(c3ccccc3)N(C)C(=O)N(C)C12c1ccccc1` (stereo not drawn) it was 0.959; in that of `CCOC(=O)c1ccc(NC(=O)CSc2nnc(CNC(=O)c3c(F)cccc3Cl)o2)cc1`, 0.605.
Under `Cc1nc(NCCN2CCOCC2)c2nnn(Cc3c(F)cccc3Cl)c2n1` stands -0.365; under `COc1ccc(C(=O)Oc2ccc(=O)n(-c3ccccc3)n2)cc1`, -0.0671.
In turn, `Cc1cc(C)n(C(=O)COc2ccccc2C)n1` registered a z-score of -0.319.
Under `O=C1c2ccccc2OC2(C=Cc3ccccc3O2)N1Cc1ccccc1` (stereo not drawn) stands 0.198; under `COc1cc(CNC2CCCC2)cc(Cl)c1OCc1ccccc1F`, 2.5; under `COC(=O)CN(c1ccc2c(c1)OCCO2)S(=O)(=O)c1ccccc1`, 0.274.
`O=C(NCc1ccccc1)c1ccc2c(c1)C(=O)N(Cc1ccncc1)C2=O` returned a z-score of 0.00455.
In the case of `CCOc1ccc(CNC(=S)N/N=C/c2cccnc2)cc1` it was 0.216; in that of `CCOC(=O)N1CCN(C(=O)Cn2ccc3ccccc3c2=O)CC1`, 0.275.
In the case of `Cc1ccc(C23OC(=O)C(C)(C)C2OC(=O)C3(C)C)cc1` (stereo not drawn) it was -0.382; in that of `COc1ccc(/C=N/c2oc(-c3ccccc3)cc2C#N)cc1`, -0.0521.
Under `O=C(c1ccco1)N1CCN(C(=O)c2cc(-c3ccccc3)nc3ccccc23)CC1` stands 0.86; under `Clc1ccc(CSc2nnc(-c3c[nH]c4ccccc34)o2)cc1`, -0.158; under `C=CCNC(=O)c1ccc2nccnc2c1`, 0.0818.
With `CC(=O)c1ccc(Oc2cc(C)nc(NCc3ccccc3)n2)cc1`, the z-score is 0.293.
For `CCN(CC)CCCC1(CN)OCCc2ccccc21` (stereo not drawn), the z-score was -0.332.
Under `CCOC(=O)c1c(C)[nH]c(O)c1C=Nc1ccc(Cl)cc1` stands -0.0084.
Under `CCCCCCCCN=C1NC(=O)CS1` stands -0.334.
Turning to `O=C(CN1C(=O)c2ccccc2S1(=O)=O)NCCC1=CCCCC1`, the z-score was -0.52.
Under `O=S(=O)(NCC1CCCO1)c1ccc2c(c1)OCCO2` (stereo not drawn) stands -0.00993; under `O=C(CSCc1ccccc1)NCc1ccc2c(c1)OCO2`, -0.0182.
With `OC(CN(c1ccccc1)c1ccccc1)Cn1cnc2ccccc21` (stereo not drawn), the z-score was -0.2.
In the case of `Cc1cc(C)n(Cc2ccc(C(=O)NCCC3=CCCCC3)o2)n1`, the z-score amounted to 0.00275.
With `CCOC(=O)c1cc(C#N)c(N2CCCC2)nc1-c1ccccc1`, the z-score was -0.377.
Under `CCOC(=O)c1cc(-c2ccccc2)sc1NC(=O)C(C)OC(=O)c1cccnc1OCC` (stereo not drawn) stands 0.0703; under `Nc1nnc(SCC(=O)Nc2ccc3nc(SCC(=O)Nc4ccccc4)sc3c2)s1`, -0.307; under `COc1ccccc1/C=C(/CC(=O)NCc1ccc(F)cc1)c1nc2ccccc2s1`, -0.147.
In the case of `Cn1nnnc1SCc1nnc(-c2ccc(F)cc2)o1` it was -0.226; in that of `CC(C)CC(=O)NC(=S)Nc1nc(-c2ccccc2)cs1`, 0.855; in that of `Cc1ccc(NC(=O)C2CC(=O)N/C(=N/N=C/c3ccco3)S2)cc1` (stereo not drawn), -0.139.
As to `Cc1ccc(/C(N)=N/OC(=O)c2cccc(F)c2)cc1`, the z-score is -0.182.
As to `COc1ccc(NCC(=O)Nc2ccccc2C#N)cc1Cl`, the z-score is -0.204.
Compound `O=S(=O)(/C=C/c1ccccc1)N1CCN(c2ccccc2)CC1` displayed a z-score of 1.11.
In the case of `O=C(NC1(C(F)(F)F)N=C(c2ccccc2)NC1=O)c1ccc(Cl)cc1Cl` (stereo not drawn) it was -0.164; in that of `Cc1ccc(-c2nc3cc(NC(=O)C(C)C)ccc3o2)cc1`, 0.987.
In the case of `S=c1[nH]nc(COc2ccc(Cl)cc2)n1C1CCCCC1` it was 1.31.
`CC(C(=O)NCc1ccc2c(c1)OCO2)N(c1ccccc1)S(C)(=O)=O` (stereo not drawn): the z-score is -0.988.
Compound `CCn1ncc([N+](=O)[O-])c1C(=O)n1nc(C)cc1C` showed a z-score of -0.167.
As for `O=C(/C=C/c1ccccc1Cl)NCc1cccs1`, the z-score was -0.292.
The compound `CCOC(=O)C1CCN(Cc2cn[nH]c2-c2ccc(C)cc2)CC1` came in with a z-score of 0.226.
In the case of `CCCOc1ccc(C(=O)N2CC3(CC(c4cccc(NC(=O)[C@@H]5CCC(=O)N5)c4)=NO3)C[C@H]2C(=O)NC2(C(N)=O)CC2)cc1` (stereo partly drawn) it was -0.0331.
In the case of `Clc1ccccc1Nc1c2c(nc3ncnn13)CCC2` it was -0.223.
In the case of `Cn1c(=O)oc2cc(S(=O)(=O)N3CCC(C(=O)NCc4ccc(F)cc4)CC3)ccc21` it was 0.0719; in that of `Cc1ccc(OCCNC(=O)/C=C/c2ccc([N+](=O)[O-])cc2)cc1C`, 0.0376.
For `Cc1ccc(N2CCN(C(=O)c3ccccc3NC(=O)/C=C\C(=O)O)CC2)cc1`, the z-score was -0.105.

These data come from PubChem BioAssay AID488969 (Vanderbilt High Throughput Screening Facility, 2010).
